Results: PubChem BioAssay AID686992 (Broad Institute, 2013)
The campaign covered roughly 260,000 compounds. About 960 (0.37%) were called active. Inconclusive results, whose numbers are uncertain, are shown with a selection of clear calls.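 The calls were made as follows: active = mean E-selectin-positive cell signal at least 10% of the positive control, reached in at least 60% of replicates, without over 20% cell loss; inconclusive = no rule given, readout overlaps actives, possibly toxicity-flagged; inactive = the rest, including those meeting only one limit.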

target: E-selectin (Homo sapiens) (UniProt P16581); test: inducers of endothelial E-selectin expression – imaging, HUVEC, immunofluorescence imaging, single point, primary screen (AID 686992); details: at 7.58 µM, hits give high values, normalized: neutral wells 0, TNF-alpha wells 100;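 also: signal is the percent of cells scored E-selectin positive by PE staining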
Chain of UniProt P16581 (P16581 whole entry, looked up): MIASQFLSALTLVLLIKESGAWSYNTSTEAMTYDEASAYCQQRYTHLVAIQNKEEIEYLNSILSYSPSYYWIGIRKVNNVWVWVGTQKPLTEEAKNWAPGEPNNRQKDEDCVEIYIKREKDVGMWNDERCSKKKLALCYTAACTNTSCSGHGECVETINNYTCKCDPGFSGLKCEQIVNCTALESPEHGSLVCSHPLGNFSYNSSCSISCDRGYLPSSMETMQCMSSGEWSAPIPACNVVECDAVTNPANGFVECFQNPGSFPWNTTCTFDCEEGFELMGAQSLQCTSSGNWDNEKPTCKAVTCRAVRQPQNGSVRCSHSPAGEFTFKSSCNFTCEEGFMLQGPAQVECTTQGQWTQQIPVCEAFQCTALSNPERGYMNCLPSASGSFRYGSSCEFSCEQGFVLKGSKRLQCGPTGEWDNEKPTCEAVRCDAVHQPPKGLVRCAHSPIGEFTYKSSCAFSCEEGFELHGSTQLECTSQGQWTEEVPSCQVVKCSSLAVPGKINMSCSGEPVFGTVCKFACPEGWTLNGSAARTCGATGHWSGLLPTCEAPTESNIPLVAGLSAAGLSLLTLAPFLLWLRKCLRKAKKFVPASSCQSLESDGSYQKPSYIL
Outline: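 assay system = HUVEC, human umbilical vein endothelial cells | input = 3,000 HUVEC seeded per well | medium = EGM-2 growth medium on 0.1% gelatin-coated wells | dosing = one compound dose added by pin transfer | signal = immunofluorescence imaging | read-out basis = % PE-positive cells | control set = TNF-alpha, DMSO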

Row | Compound | activation
1 | C[C@@H]1CN([C@@H](C)CO)C(=O)c2cccc(NC(=O)c3ccc(-c4nccs4)cc3)c2O[C@@H]1CN(C)Cc1ccc(Oc2ccccc2)cc1 | inconclusive: 57.1%
2 | Cc1ccc(C(=O)NNC(=O)C2CCN(C(=O)OC(C)(C)C)CC2)cc1 | inconclusive: 40.3%
3 | Cc1cc(C(=O)Nc2cccc3c2O[C@@H](CN(C)CC2CCCCC2)[C@@H](C)CN([C@@H](C)CO)C3=O)n(C)n1 | inactive: 1.27%
4 | C[C@@H]1CN([C@H](C)CO)C(=O)Cc2cc(NC(=O)Cc3ccccc3)ccc2O[C@H]1CN(C)C(=O)Nc1cccc2ccccc12 | inconclusive: 148%
5 | COCC(=O)N1[C@H](C#N)[C@H](c2ccc(-c3cccc(F)c3)cc2)[C@@H]1CO | inactive: -0.207%
6 | Cc1noc(C)c1NC(=O)N(C)C[C@@H]1Oc2ccc(NS(=O)(=O)c3cccs3)cc2CC(=O)N([C@H](C)CO)C[C@@H]1C | inconclusive: 200%
7 | COc1ccc(CC(=O)NC(C)c2nnc(SCC(=O)Nc3ccccc3)n2C)cc1 (stereo not drawn) | inactive: -0.578%
8 | Cc1cccc2nc(Cn3c(=O)n(CCCC(=O)NCc4ccco4)c(=O)c4ccccc43)cc(=O)n12 | inconclusive: 28.6%
9 | N#C[C@@H]1[C@H](c2ccccc2-c2ccccc2F)[C@H](CO)N1C(=O)c1cccc(F)c1 | inconclusive: 48.8%
10 | COc1ccc(CNC(=O)Cn2ccc(N)nc2=O)cc1 | active: 38.8%
11 | C[C@H](CO)N1C[C@H](C)[C@H](CN(C)CC2CC2)Oc2ccc(NC(=O)CCN3CCOCC3)cc2C1=O | inconclusive: 61.1%
12 | CN(C)C(CNC(=O)c1cccs1)c1cccnc1 (stereo not drawn) | inactive: 8.13%
13 | Cc1ccc(CCNC(=O)C2CCC(CNc3c(N4CCC(C)CC4)c(=O)c3=O)CC2)cc1 (stereo not drawn) | inconclusive: 145%
14 | COc1ccc(S(=O)(=O)NCc2ccc3c(c2)cc(C)n3C)cc1 | inconclusive: 52.1%
15 | C[C@H](CO)N1C[C@H](C)[C@H](CN(C)C(=O)[C@@H]2CCCN2C)OCc2ccccc2-c2c(n(C)c3ccccc23)C1=O | inactive: 0.947%
16 | C[C@H]1CN([C@@H](C)CO)C(=O)Cc2cc(NC(=O)c3ccncc3)ccc2O[C@H]1CN(C)Cc1ccc(C(=O)Nc2ccccc2N)cc1 | inconclusive: 186%
17 | CC(C)C[C@H](NC(=O)C1CCN(C(=O)[C@H](Cc2ccccc2)NC(=O)OC(C)(C)C)CC1)C(=O)O | inconclusive: 26.7%
18 | COc1ccc(CN(C)C[C@@H]2Oc3ccc(N(C)C)cc3CC(=O)N([C@H](C)CO)C[C@H]2C)cc1 | inconclusive: 37.1%
